From the RNAGym collection of RNA variant scans (doi:10.7554/elife.90254)
Read counts are not given, so values of variants with three or more changes are uncertain.

B1: OR4K15 (parent)
chain: GUUAACGGUCAUAGGCCAUGGAAACUAGGAGCACCAUUUCGCUGCCAGUGAAGAAAUGAACAAAGAAAAUCUGGGCCAGGCAGGCAUCAAAAGAAAUAGUCUUGCGCUCAACCAGAAAGUCUGUAAUCAUUUUAAGGGUA

Variants of: B1
Assay: self-cleavage, relative activity (ratio to wild type); higher = more cleavage; in vitro, sequencing; the parent is a self-cleaving ribozyme
U70C G123A U130C gave a self-cleavage of 0.26. A23G A51G A110U gave a self-cleavage of 1.4. U37C A66G A116G gave a self-cleavage of 0.53. For A11G A59G A64C A95U, the self-cleavage was 0.47. A30G A95G U122C gave a self-cleavage of 1.49. A62U A90G U132C gave a self-cleavage of 0.46. With A18G A27G U132C the self-cleavage was 0.72. In the case of U2G U9C U38C U87C, the self-cleavage is reported as 0.92. In the case of U2C A51G A111G U127A, the self-cleavage is reported as 0.03. G41A U72A A118U showed a self-cleavage of 0.05. In the case of U2A A68G A91G, the self-cleavage is reported as 1.78. U43A A64G G119U U120C gave a self-cleavage of 1.68. With A52G A62G G74C A95G U139C the self-cleavage was 0.26. Work on A56G A68G U100C yielded a self-cleavage of 1.95. Work on A33G U102A A117G yielded a self-cleavage of 0.54. With A5G C25A U39A the self-cleavage was 0.94. In the case of C6U G28U G138A, the self-cleavage is reported as 1.4. In the case of U72C U103A G123A, the self-cleavage is reported as 0.09. A27G U97A U122C showed a self-cleavage of 2.09. With C16G G48U A82U C112U the self-cleavage was 0.03. For A18U A23G A24C U39C A55G, the self-cleavage was 1.34. For U2C A55G A96G A110C, the self-cleavage was 0.23. Work on U19C A24U A96G yielded a self-cleavage of 0.91. With U26C A66G A111G U131C the self-cleavage was 0.01. A11G A56G A60G U70C A86G showed a self-cleavage of 0.17. Work on A5G U26G A89G A96G U103C A116G yielded a self-cleavage of 0.44. A27C A68G U127C gave a self-cleavage of 0.54. A18G A52G A62C A111U showed a self-cleavage of 0.19. A5G A92G A111G A118U showed a self-cleavage of 0.04. For A24G A56C A60G, the self-cleavage was 0.81. With A86G U108C A110G A126G the self-cleavage was 0. Variant A30G U87C U122C U127C has a self-cleavage of 0.54. Variant C35U A60G A94U has a self-cleavage of 0.66. Variant A27G C40U A135U has a self-cleavage of 0.36. G7A A52G U87A gave a self-cleavage of 1.05. In the case of U43C A59U A92G A118G U127A U130C, the self-cleavage is reported as 1.16. Variant U49A A78U A114U has a self-cleavage of 0.02. U9A U72A A94U A116G U131C gave a self-cleavage of 0.02. With A55G A63G A66G A92G the self-cleavage was 1.8. With U37C A54U A82G A116G A126U the self-cleavage was 0.36. A66G U102A U124C gave a self-cleavage of 0.86. Work on G53A A86U A116G A126G yielded a self-cleavage of 0.46. A5U A52G U122C showed a self-cleavage of 1.04. Work on G7A A82G A111G yielded a self-cleavage of 0.01. Work on U70C A116G U127C yielded a self-cleavage of 1.65. With A63G A64G U132C A135G the self-cleavage was 0.77. With A62G A114G U127A the self-cleavage was 0.59. For U9C A11U A33G G44A A82U A91G, the self-cleavage was 0.07. For U39A A89G G104A, the self-cleavage was 0.07. In the case of U57C G104A A110G, the self-cleavage is reported as 0.01. In the case of A11G A18C U127C, the self-cleavage is reported as 0.64. A62C U124C U130C gave a self-cleavage of 0.8. U2C A22G A51U gave a self-cleavage of 1.04. Variant A23C A110G U122C has a self-cleavage of 0.08. In the case of A59G U102C U131C, the self-cleavage is reported as 1.08. U70C A82U A91G showed a self-cleavage of 0.13. In the case of U38A A118G A135G, the self-cleavage is reported as 1.97. Work on G7A U39C A66G A94G C105G U132C yielded a self-cleavage of 0. Variant A5G A24G A66G A89G has a self-cleavage of 0.92. For A63G A89G U122A, the self-cleavage was 0.72. With U9C A52G A92G U131C the self-cleavage was 2.24. With A18G U38C U43A A110U the self-cleavage was 2. In the case of A36G A54G A62U U127C A129G U130C, the self-cleavage is reported as 0.27. With A66G A117G A126G the self-cleavage was 2. U43A A67G A95G A114C showed a self-cleavage of 0.07. For A27G A51G A91G U97C, the self-cleavage was 1.1. A18G A22U U100G C121U U132C showed a self-cleavage of 2.8. A18G A22G U37G A64G gave a self-cleavage of 1.27. A18G A23G A98G gave a self-cleavage of 1.13. With A18U A52G A63G A116G the self-cleavage was 0.2. Work on U37G A62G A68G A91G yielded a self-cleavage of 1.12. For G28C A117G U120C, the self-cleavage was 1.22. For A36G U57C A68G U87C A126G, the self-cleavage was 0.64. Work on A5G A18G A52G U57A A62G A68G A82G A91G U131C yielded a self-cleavage of 0. For U2A A27G A118G U120A, the self-cleavage was 1.75. Work on A27C A78G A95G yielded a self-cleavage of 0.38. A47U A60G A69G gave a self-cleavage of 0.38. With U43A A56G A60G U87C the self-cleavage was 0.54. U38C A67G U72C A78G A82G U108C showed a self-cleavage of 0.02. With A4G A22G U72A A86U A116G the self-cleavage was 0.18. A11C A24C U39A U70C C71U A96G showed a self-cleavage of 0.58. In the case of U19A G31A A78G, the self-cleavage is reported as 0.28. For A18C A69G C107G U124C, the self-cleavage was 0.01. A59U A67G A98G U100A gave a self-cleavage of 0.21. In the case of A13G U19C A59G A110G, the self-cleavage is reported as 0.18. Work on A5U A13G A114G yielded a self-cleavage of 0.24. U26C A92C A94U showed a self-cleavage of 2.92. Variant A4G U19C A52G has a self-cleavage of 0.42. Variant A94U G106A A135G has a self-cleavage of 0. For A22G U38C G80U A89G U131C, the self-cleavage was 0.16. A23G A89G A126U gave a self-cleavage of 0.56. U2C A24U U38C A69G A129G showed a self-cleavage of 0.63. Work on A22G U49C U57A A78U A91G yielded a self-cleavage of 0.11. A52U A66G U87C gave a self-cleavage of 1.18. Variant A22U G79A A82U U102A A110C A126G has a self-cleavage of 0.01. With A23G A91G U127C the self-cleavage was 0.6. For G7A A13G C45A, the self-cleavage was 1.49. In the case of A24G A90U A94U A125G A126G, the self-cleavage is reported as 0.62. Variant U43C A55G U103G U120C U124C A126C U127C has a self-cleavage of 0. U3C U39C A63U A67G A86G U97A showed a self-cleavage of 1.65. Work on A78U U124A A126G yielded a self-cleavage of 0.3. U19A G58A G84A gave a self-cleavage of 1.8. With A18G A22G G41A A94U the self-cleavage was 1.52. Variant A22G A91G U133C A135G has a self-cleavage of 1.2. With U12A A51G A66G U100C C109U the self-cleavage was 0.44. A51G A67G U130C showed a self-cleavage of 1.19. U2C A69G A118G gave a self-cleavage of 0.25. For A4U U9C U12C U124A, the self-cleavage was 0.93. For A92U A110C U122C, the self-cleavage was 0.16. With A30U A94G U132A the self-cleavage was 0.82. Work on U19C U97G A125G U131C yielded a self-cleavage of 0.46. Work on A36C A86G A116G yielded a self-cleavage of 1.34. In the case of A4G G50A A96G A111U, the self-cleavage is reported as 0.05. Work on A24G U72C U127C U130C U131A yielded a self-cleavage of 0.14. Work on U72C G119C G123A yielded a self-cleavage of 0.08. A54G U57G U87C U102C A118G showed a self-cleavage of 1.49. With A62G A95G U139C A140G the self-cleavage was 2.11. A54U U100A A126G showed a self-cleavage of 0.21. For A24G A64G G84C A116U U133C, the self-cleavage was 0.03. Variant C46U A52G A67G U120C has a self-cleavage of 0.94. U49C A62C A66G gave a self-cleavage of 1.7. In the case of A24G G29U A86G A90U U131C, the self-cleavage is reported as 1.35. A11U G79A A110U gave a self-cleavage of 0.28. In the case of U3C A11G A36C, the self-cleavage is reported as 1.64. Variant A23G A24G A92G has a self-cleavage of 1.07. U38G A52G A55G gave a self-cleavage of 0.83. In the case of A54G A56G A66G A68G A69G A125G, the self-cleavage is reported as 0.22. With A5G G44A A51G A52U A66G A140C the self-cleavage was 1.12. U9C A22G A67G U131A gave a self-cleavage of 1.49. For A60G U102C U103A, the self-cleavage was 0.22. In the case of A64G A78U A91G, the self-cleavage is reported as 0.07. Work on A54U A64G A110U yielded a self-cleavage of 1.04. With U38C G44A A47G A62C A95G U102C the self-cleavage was 1.65. In the case of U9C U37C U38C U108C, the self-cleavage is reported as 0.04. In the case of U12C A59G A63G A94G A111G, the self-cleavage is reported as 0.03. For A11G A96C U127A, the self-cleavage was 1.87. Variant A24U A89G U97A A118G has a self-cleavage of 1.02. In the case of A30G A68U A95G, the self-cleavage is reported as 0.52. For A11G A13G A62G U124C U127C, the self-cleavage was 0.42. For U39C U57C A59G A66U U120A, the self-cleavage was 1.59. A68G U87A A125G U132A gave a self-cleavage of 0.41. U49C A67G U87C U108C gave a self-cleavage of 0. U37C U122C A129G gave a self-cleavage of 0.78. Variant U39C A60G U132C has a self-cleavage of 1.18. Variant A22G A64G A91G U103C A114U U130C has a self-cleavage of 0. A51G U70C A82C A86G A129U gave a self-cleavage of 0.05. Variant U12C G44A A52G A82G has a self-cleavage of 0.5. Work on U2C U12C A52G yielded a self-cleavage of 0.98. For A54G C77U A78U A94G A117G, the self-cleavage was 0.89. In the case of A64G A66G U87C A116G, the self-cleavage is reported as 0.18. With A33G C45A A55G U103C A125G the self-cleavage was 0.03. With A4G G41U A64G U120C the self-cleavage was 0.87. In the case of A30U A117G U127C, the self-cleavage is reported as 0.87. A33G U37C A116G A118U showed a self-cleavage of 0.04. Work on U9C A60G A66U C85U U100G yielded a self-cleavage of 0.59. With A89G A110G G119A U131C the self-cleavage was 0.07. With U49C G53U A78U A118G the self-cleavage was 0.18. A62G A66U U127C showed a self-cleavage of 0.64. Work on A5G U19C A129G U131C yielded a self-cleavage of 1.24. Variant U43A U100A U103C has a self-cleavage of 0.3. With U38C A63G U108C the self-cleavage was 0.01. Variant U49A A54G A67G A95G has a self-cleavage of 1.29. In the case of A4G A11G U57C A62G, the self-cleavage is reported as 1.03. Work on A36G A82U C88A U132C yielded a self-cleavage of 0.19. Variant A36G U57A G80A A116G U120A has a self-cleavage of 0.06. U49C U70C U102C showed a self-cleavage of 1.6. Work on A22G U39A A63G A98G yielded a self-cleavage of 1.19.
